Among all 310,000 compounds or so, about 2,200 (0.71%) showed an effect of 50% or more. Effects have a minus sign here. The list shows a part of the results.
What follows are compounds tested against human ether-à-go-go-related gene (hERG) potassium channel (human, UniProt Q12809) (assay: primary screen, population patch clamp on CHO cells stably expressing hERG).
human ether-à-go-go-related gene (hERG) potassium channel, sequence (Q12809 whole entry, looked up): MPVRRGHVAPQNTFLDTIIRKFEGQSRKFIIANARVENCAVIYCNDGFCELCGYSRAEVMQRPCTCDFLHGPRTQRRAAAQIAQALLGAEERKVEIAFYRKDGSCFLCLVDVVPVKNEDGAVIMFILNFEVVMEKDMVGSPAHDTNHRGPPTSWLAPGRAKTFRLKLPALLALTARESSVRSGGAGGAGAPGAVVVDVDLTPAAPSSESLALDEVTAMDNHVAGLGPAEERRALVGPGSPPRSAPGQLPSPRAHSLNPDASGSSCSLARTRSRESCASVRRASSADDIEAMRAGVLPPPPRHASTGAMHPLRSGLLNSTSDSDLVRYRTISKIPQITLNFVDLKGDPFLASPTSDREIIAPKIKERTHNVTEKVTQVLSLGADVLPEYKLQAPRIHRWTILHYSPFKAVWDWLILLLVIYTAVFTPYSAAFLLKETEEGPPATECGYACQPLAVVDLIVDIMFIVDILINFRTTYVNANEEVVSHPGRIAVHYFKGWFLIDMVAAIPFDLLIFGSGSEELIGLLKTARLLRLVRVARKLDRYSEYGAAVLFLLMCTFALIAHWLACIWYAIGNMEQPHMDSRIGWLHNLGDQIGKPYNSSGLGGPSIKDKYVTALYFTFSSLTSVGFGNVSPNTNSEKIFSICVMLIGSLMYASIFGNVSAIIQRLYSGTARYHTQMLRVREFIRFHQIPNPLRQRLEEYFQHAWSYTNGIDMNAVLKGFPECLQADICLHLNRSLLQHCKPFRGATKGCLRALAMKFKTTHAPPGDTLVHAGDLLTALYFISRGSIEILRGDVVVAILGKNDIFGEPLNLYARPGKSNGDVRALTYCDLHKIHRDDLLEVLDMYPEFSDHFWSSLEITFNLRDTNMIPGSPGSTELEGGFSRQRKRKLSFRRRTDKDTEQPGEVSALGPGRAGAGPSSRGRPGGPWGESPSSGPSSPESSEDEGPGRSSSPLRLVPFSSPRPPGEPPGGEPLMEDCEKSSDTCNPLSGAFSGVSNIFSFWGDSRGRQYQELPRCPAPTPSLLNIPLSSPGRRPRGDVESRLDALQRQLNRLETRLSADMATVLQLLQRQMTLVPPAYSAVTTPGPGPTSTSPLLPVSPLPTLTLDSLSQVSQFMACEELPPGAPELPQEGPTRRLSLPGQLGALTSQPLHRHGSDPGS

| SMILES | hERG current change (%, negative = inhibition) at 1uM [%] |
| --- | --- |
| Cc1ccc(Nc2cccc(C(F)(F)F)c2)nn1 | 5.93 |
| O=C(N/N=C/c1cnc(N2CCOCC2)s1)c1ccccc1 | 10.8 |
| Cc1nn(C)c(C(=O)N2CCN(C(=O)c3ccco3)CC2)c1Br | 11.7 |
| COc1ccccc1N=Cc1c(C)c(C#N)c2[nH]c3ccccc3n2c1=O | 9.35 |
| CCC1CCCCN1Cc1ccc(CNS(=O)(=O)c2ccc3c(c2)oc(=O)n3C)o1 (stereo not drawn) | 3.82 |
| CC(=O)N=c1ncn(CC(COC(C)=O)OC(C)=O)c2nc[nH]c12 (stereo not drawn) | 12.9 |
| CC(C)c1cc(CN2CCN(C3CCCC3)C(CCO)C2)[nH]n1 (stereo not drawn) | 8.68 |
| C=CCOC(=O)C1=C[C@H](c2ccc(C(F)(F)F)cc2)C[C@H](OCCCCO)O1 | 9.6 |
| CC(C)CCOc1ccc(C(=O)NCCC(=O)N2CCOCC2)cc1 | 3.89 |
| COc1ccc(S(=O)(=O)n2ccc(-c3ccc(OCCN(C)c4ccccn4)cc3)n2)cc1 | 17.2 |
| O=C1CCCN1CCC12CC3CC(CC(C3)C1)C2 | 7.27 |
| Cc1ccccc1NC(=O)c1ccc(S(=O)(=O)N2CCCC2)cc1 | 10 |
| Cc1c(C(=O)NN2CCOCC2)cccc1[N+](=O)[O-] | 10.5 |
| CC(C)(C)n1nc2c(c1NC(=O)c1cccs1)CS(=O)C2 (stereo not drawn) | 20.4 |
| C/C(N)=C(/C#N)C(=O)COC(=O)c1cc(-c2ccc(C)cc2)nc2ccccc12 | 21.2 |
| Cc1cc(C)cc(NC(=O)COC(=O)Cn2cnc3c2c(=O)n(C)c(=O)n3C)c1 | -12.4 |
| CCCOc1ccc2oc(=O)c3c(c2c1)CCCN3C(=O)CN1CCN(C(=O)c2ccco2)CC1 | -20.3 |
| CCCCCn1c(=O)[nH]c2cc(C(=O)NCCN3CCC(C)CC3)ccc2c1=O | 0.349 |
| Cc1cc(C)cc(C(=O)NCCC(=O)N2CCC3(CC2)NCCc2[nH]cnc23)c1 | 24.2 |
| COc1ccc(NC(=O)CCN=C2NS(=O)(=O)c3ccccc32)cc1S(=O)(=O)N(C)C | 7.52 |
| COc1ccccc1Nc1nnc(Cc2ccccc2)c(=O)[nH]1 | 7.65 |
| CCN(CCn1cccn1)C(=O)CC1C(=O)NCCN1CCc1ccccc1 (stereo not drawn) | 6.34 |
| Cc1cc(/C=N/n2cnnc2)c(C)n1-c1cccc(C(=O)O)c1 | 13.6 |

| SMILES | hERG current change (%, negative = inhibition) at 1uM [%] |
| --- | --- |
| CCC(CO)NCc1ccc2c(c1)n(C)c(=O)n2C.Cl (stereo not drawn) | 19.1 |
| C=CCn1cc(CN2CCC(C(=O)Nc3cccc(-c4cccc(Cl)c4)c3)CC2)c(C)n1 | -30 |
| CCOC(=O)C1=C(C)NC(=O)NC1c1ccc(NC(C)=O)cc1 (stereo not drawn) | 11.6 |
| O=C(Nc1ccccc1F)C1CCN(S(=O)(=O)c2cccnc2)CC1 | 14.5 |
| COc1ccc(N2C(=O)c3ccc(C(=O)Nc4ccccc4OC)cc3C2=O)cc1 | 18.5 |
| O=C(COn1nnc2ccc(S(=O)(=O)N3CCOCC3)cc21)NCCc1ccccc1 | 8.88 |
| CCOc1ccccc1NC(=O)C1CCCN(S(=O)(=O)c2ccc(-n3cnnn3)cc2)C1 (stereo not drawn) | 11.2 |
| O=C1NCCN1C(=O)C12CC3CC(CC(C3)C1)C2 | 5.8 |
| COC(=O)CN(c1cc(C(F)(F)F)ccc1Cl)S(C)(=O)=O | 11.6 |
| CC1=NN(c2ccccc2)C(=O)C1N=Nc1ccc(S(N)(=O)=O)cc1 (stereo not drawn) | 4.25 |
| CC(=O)c1ccc(NC(=O)C2CCCN(S(=O)(=O)c3ccc(-n4cnnn4)cc3)C2)cc1 (stereo not drawn) | 10.3 |
| CC(C)c1ccc(OCC(=O)NC(Cc2c[nH]c3ccccc23)C(=O)O)cc1 (stereo not drawn) | 14.1 |
| COc1ccc(CCNS(=O)(=O)c2cccc(F)c2)cc1OC | 3.77 |
| Oc1ccc(CN2CCN(Cc3ccccc3)CC2)c2cccnc12 | 7.56 |
| O=c1nc(Nc2ccc([N+](=O)[O-])cc2)[nH]c(=O)[nH]1 | 9.16 |
| O=C(Nc1nnc(SCC(=O)N2CCCCC2)s1)c1ccc(F)cc1F | 4.43 |
| COc1ccc(NC(=O)CNc2cc(C)ccc2C)cc1S(=O)(=O)N1CCOCC1 | 7.68 |
| O=C(C1=COCCO1)N1CCN(S(=O)(=O)c2cccc(Cl)c2Cl)CC1 | 6.31 |
| Cn1c(CN2CCN(c3ccccc3NS(C)(=O)=O)CC2)nc2ccccc21 | -32.2 |
| CCOC(=O)CSc1nc2cc3c(cc2cc1C#N)OCO3 | 1.14 |
| C1CCC(Nc2nnnn2C2CCCCC2)CC1 | 15.4 |
| COc1ccc(OC)c(S(=O)(=O)n2ccnc2C(C)C)c1 | 8.65 |

Source: article PMC4336329 (PLoS ONE, 2015)
